Experimental data reported in PubChem BioAssay AID360 (National Center for Advancing Translational Sciences (NCATS), 2006).
The whole screen tested about 48,000 compounds, of which about 550 (1.1%) were called active. Inconclusive results (about 4%) are left out. Cut-off read from the data, not from the text of the source: active = potency below about 15 µM; inconclusive = mostly about 16 µM to 33 µM; inactive = weaker than that. This is one part of the list.

Target: Lysosomal acid glucosylceramidase (Homo sapiens) (UniProt P04062)
UniProt P04062, sequence (P04062 whole entry, looked up): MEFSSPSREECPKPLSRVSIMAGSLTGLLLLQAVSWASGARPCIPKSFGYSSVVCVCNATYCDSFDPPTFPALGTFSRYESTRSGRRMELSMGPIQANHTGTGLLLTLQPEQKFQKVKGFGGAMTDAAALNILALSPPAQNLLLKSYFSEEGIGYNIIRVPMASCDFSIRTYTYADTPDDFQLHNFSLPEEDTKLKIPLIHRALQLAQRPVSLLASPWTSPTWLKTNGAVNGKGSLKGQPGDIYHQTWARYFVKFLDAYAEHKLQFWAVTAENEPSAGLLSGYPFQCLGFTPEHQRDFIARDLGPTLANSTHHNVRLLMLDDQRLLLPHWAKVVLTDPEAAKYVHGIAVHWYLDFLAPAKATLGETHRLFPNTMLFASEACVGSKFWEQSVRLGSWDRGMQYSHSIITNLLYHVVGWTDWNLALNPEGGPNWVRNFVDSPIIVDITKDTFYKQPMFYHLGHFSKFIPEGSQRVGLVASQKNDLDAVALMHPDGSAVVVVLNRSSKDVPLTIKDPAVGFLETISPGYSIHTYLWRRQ
Assay: Glucocerebrosidase;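 note: the screen sought inhibitors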
Conditions: purified enzyme, resorufin glucoside fluorescence (screen aimed at inhibitors), 20 min; series mostly up to 77 µM
Summary of the method: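 Wild-type enzyme at 0.2 nM final in 50mM citric acid/KH2PO4, 10mM sodium taurocholate, 0.01% tween-20, pH 5.9, with resorufin beta-D-glucopyranoside at 30 uM final. Compounds titrated, 20 min at RT, red fluorescence read; AC50 from titration.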
Potency is the fitted concentration of half-maximal effect.

Potency, inactive:
CCCC(c1nnnn1C1CCCC1)N1CCN(c2ccccc2F)CC1 (centres undefined) > 76.9 µM
O=C(CN(CC1CCCO1)C(=O)CNS(=O)(=O)c1ccccc1)NCc1ccccc1 (centres undefined) > 76.9 µM
COc1cccc(NC(=O)C2CCCN2C(=O)Nc2cccc(F)c2)c1 (centres undefined) > 76.9 µM
Cc1csc(SCC(=O)Nc2c(C)n(C)n(-c3ccccc3)c2=O)n1 > 76.9 µM
Cn1c(=O)c2c(nc(SCCCO)n2Cc2ccccc2Cl)n(C)c1=O > 76.9 µM
O=C(O)CCSCC(=O)c1ccc2c(c1)OCCO2 > 76.9 µM
CCCN(CCC)CCCNC(=O)CC(C(=O)N1CCc2ccccc21)n1ccnc1 (centres undefined) > 76.9 µM
CSc1ccc(Cl)c(C(=O)OCC(=O)N2CC(C)OC(C)C2)c1 (centres undefined) > 76.9 µM
O=C(Nc1ccc(C(=O)N2CCCC2)cc1)c1ccccc1F > 76.9 µM
Cc1ccc2c(c1)N(CCC(=O)NCc1ccc3c(c1)OCO3)C(=O)CO2 > 76.9 µM
CN1CCN(S(=O)(=O)c2ccc(=O)[nH]c2)CC1 > 76.9 µM
Cc1csc(SCC(=O)N2CCN(S(=O)(=O)c3ccccc3)CC2)n1 > 76.9 µM
COC(=O)c1c(C(=O)OC)c2cc(C)ccn2c1Cl > 76.9 µM
COc1ccc(C2C3=C(CC(C)(C)CC3=O)Nc3c2c(=O)[nH]c2nc(C)nn32)cc1 (centres undefined) > 76.9 µM
O=C(c1ccc2c(=O)n(CC3CCCO3)c(=S)[nH]c2c1)N1CCN(c2ccccc2)CC1 (centres undefined) > 76.9 µM
CCOCC(=O)Nc1ccc(S(=O)(=O)Nc2ncccn2)cc1 > 76.9 µM
COc1ccccc1COCC(O)CNCC1(N2CCCCC2)CCCCC1 (centres undefined) > 76.9 µM
CCc1ccc(-c2nc(CN3CCC(C(=O)NCc4ccco4)CC3)c(C)o2)cc1 > 76.9 µM
CCN1CCN(c2nc(-c3cccnc3)nc3ccccc23)CC1 > 76.9 µM
O=C(COC(=O)Cc1cccs1)Nc1ccccc1 > 76.9 µM
Cc1ccc2cccc(S(=O)(=O)N3CCN(c4cccc(Cl)c4)CC3)c2n1 > 76.9 µM
CC(C)Oc1ccc2nnnn2n1 > 76.9 µM
CCOCCCN1C(=O)CN(C2CCCCC2)C(=O)C1c1ccc(OCC)c(OC)c1 (centres undefined) > 76.9 µM
CCOC(=O)COn1c(=O)c[n+]([O-])c2ccccc21 > 76.9 µM
Cc1ccc(C(=O)Nc2ccccc2C(N)=O)o1 > 76.9 µM
COC(=O)c1sc(N)c(C(=O)OC)c1CSc1nnnn1C > 76.9 µM
O=c1cc(CN2CCN(c3ccccc3)CC2)c2cc(O)c(-c3ccccc3)cc2o1 > 76.9 µM
O=C(CCn1c(=O)oc2ccccc21)NCCN1CCc2ccccc2C1 > 76.9 µM
CCOc1ccc(C2/C(=C(/O)c3ccccc3)C(=O)C(=O)N2CCCN(C)C)cc1OC (centres undefined) > 76.9 µM
Cc1nc(N2CCN(Cc3ccccc3)CC2)nc2c1C(=O)CC(C)C2 (centres undefined) > 76.9 µM
CCOC(=O)c1ccccc1NC(=O)c1ccccc1SC > 76.9 µM
CCN(CC)C(=O)CN1C(=O)C2CC=C(Cl)CC2C1=O (centres undefined) > 76.9 µM
O=C(NCC1CCCO1)c1ccc(Cl)c(F)c1F (centres undefined) > 76.9 µM
Cc1cccc(C(=O)OCC(=O)Nc2ccc(N3CCCCC3)cc2)c1O > 76.9 µM
CN(C)c1cccc(C(=O)NC2CCCCCC2)c1 > 76.9 µM
CC(=O)c1cc(F)c(N2CCN(C(=O)c3ccco3)CC2)cc1C > 76.9 µM
O=C(c1cnn2c(C(F)(F)F)cc(-c3ccc4c(c3)OCO4)nc12)N1CCCCC1 > 76.9 µM
CCCOC(=O)NC1C(NC(=O)OCCC)N(C)C(=O)N1C (centres undefined) > 76.9 µM
COC(=O)c1ccc2c(=O)n(CCC3=CCCCC3)c(SCC(=O)N3CCCC3)nc2c1 > 76.9 µM
CN(C(=O)c1ccccc1)C1(C)CCS(=O)(=O)C1 (centres undefined) > 76.9 µM
COCCNC(=O)C(C#N)c1nc2ccccc2nc1N1CCCCCC1 (centres undefined) > 76.9 µM
CCOC(=O)c1nn(-c2ccc(OC)cc2)c(=O)c2c(NC(=O)c3ccco3)scc12 > 76.9 µM
CC(C)(C)OC(=O)N1CCN(c2ccc(NC(=O)c3cc4ccccc4oc3=O)cc2)CC1 > 76.9 µM
CCOc1nc(C)ccc1-c1noc(-c2ccccc2OC)n1 > 76.9 µM
COc1ccc(-n2c(C)nc3c(cnn3-c3ccc(Cl)cc3)c2=O)cc1 > 76.9 µM
COc1ccc(NC(=O)CCNC(=O)Cn2ccc3ccccc3c2=O)c(OC)c1 > 76.9 µM
O=C(CCCn1c(SCC(=O)NCC2CCCO2)nc2ccccc2c1=O)NCC1CCCO1 (centres undefined) > 76.9 µM
CC(=O)C1C(=O)C=C(c2ccco2)CC1c1ccccc1 (centres undefined) > 76.9 µM
O=C(Nc1ncccn1)C1CCCN1S(=O)(=O)c1ccc(Cl)c(Cl)c1 (centres undefined) > 76.9 µM
COc1ccc(OC)c(S(N)(=O)=O)c1 > 76.9 µM
O=C1CC(c2nc3ccccc3[nH]2)CN1c1ccccc1 (centres undefined) > 76.9 µM
c1ccc(COc2ccc(OCCOCCn3cncn3)cc2)cc1 > 76.9 µM
COc1cc(C2CC(=O)c3cnc(NC(=O)COc4ccccc4)nc3C2)cc(OC)c1OC (centres undefined) > 76.9 µM
O=C(CN1CCOCC1)N1CCN(c2nnc(-c3ccccc3)c3ccccc23)CC1 > 76.9 µM
COc1cc(NS(C)(=O)=O)c(OC)cc1NC(=O)c1cccc(F)c1 > 76.9 µM
CCCS(=O)(=O)c1cn2cccc(N)c2c1S(=O)(=O)CCC > 76.9 µM
Cn1c(=O)c2sccc2n2c(CCCC(=O)NCc3ccc4c(c3)OCO4)nnc12 > 76.9 µM
Cc1ccc(S(=O)(=O)N2CCOCC2)cc1C(=O)NCc1cn2ccsc2n1 > 76.9 µM
Cc1ccccc1NC1=NC(C)(C)N=C(N)N1 > 76.9 µM
Cc1ccc(/C=c2\sc3nc(-c4cccs4)nn3c2=O)o1 > 76.9 µM
Cn1c(=O)c2ncn(CC(=O)Nc3ccc4c5c(cccc35)CC4)c2n(C)c1=O > 76.9 µM
N#Cc1c(/N=C/c2cccs2)sc2c1CCCCC2 > 76.9 µM
Cc1ccc(-c2csc(NC(=O)c3ccno3)n2)cc1 > 76.9 µM
c1ccc(-c2nc(-c3ccco3)cs2)nc1 > 76.9 µM
Cc1nn(Cc2ccccc2)c(C)c1NC(=O)CCC(=O)O > 76.9 µM
COC(=O)CCn1nnc(-c2ccc(C(C)C)cc2)n1 > 76.9 µM
CCn1c(COc2ccccc2)nnc1SCC(=O)CC(=O)Nc1ccccc1OC > 76.9 µM
O=C(CCc1nc(-c2ccccc2F)no1)NC1CCN(Cc2ccccc2)CC1 > 76.9 µM
CCCCn1c(NCCN(C)C)nc2c1c(=O)[nH]c(=O)n2C > 76.9 µM
O=C(CN1C(=O)c2cccc3cccc1c23)NCC1CCCO1 (centres undefined) > 76.9 µM
CC1(C)CC(=O)C2=C(C1)NC(Nc1nc3ccccc3o1)=NC21CCCCC1 > 76.9 µM
O=C(O)C1CCN(C(=O)COc2ccc3c4c(c(=O)oc3c2)CCC4)CC1 > 76.9 µM
CC1CCCCC1NC(=O)Cn1nc(-c2ccccc2)ccc1=O (centres undefined) > 76.9 µM
N=C1C(c2nc(-c3ccc(F)cc3)cs2)=C(O)CN1CCCN1CCOCC1 > 76.9 µM
CC(C)(O)C#Cc1ccc(C(=O)N2CCC(C(N)=O)(N3CCCCC3)CC2)cc1 > 76.9 µM
CCOC(=O)c1c(NC(=O)CSc2nc3cccnc3n2C)sc(C(C)=O)c1C > 76.9 µM
COc1cc2cc(CN(CCO)S(=O)(=O)c3ccccc3Cl)c(=O)[nH]c2cc1OC > 76.9 µM
CN(C1CCCCC1)S(=O)(=O)c1ccc(C(=O)O)cc1 > 76.9 µM
O=C(OCCCCN1C(=O)c2ccccc2C1=O)c1ccc(Br)o1 > 76.9 µM
COc1ccc(-c2nc(N)nc(C)c2Oc2ccccc2Br)c(O)c1 > 76.9 µM
O=C(CS(=O)(=O)c1ccccc1)Nc1nc(-c2ccccc2)cs1 > 76.9 µM
COc1ccccc1NC(=O)CC1C(=O)NCCN1C(=O)Nc1ccc(Cl)c(Cl)c1 (centres undefined) > 76.9 µM
O=C1C(Cl)=C(N2CCOCC2)C(=O)N1CCc1ccccc1 > 76.9 µM
N#CC(C(=O)NCc1ccccc1)c1nc2ccccc2nc1N1CCCC1 (centres undefined) > 76.9 µM
CCNC(=O)C1CC(=O)N(c2ccc(Br)cc2)C1 (centres undefined) > 76.9 µM
COc1ccc(Cn2c(=O)[nH]c3cc(C(=O)NCCCN4CCCC4=O)ccc3c2=O)cc1 > 76.9 µM
Cc1ccc(C)c(NC(=O)Cn2nnc(C(=O)Nc3c(C)cccc3C)c2N)c1 > 76.9 µM
O=C(CN1CCC(NC(=O)c2ccc(F)cc2)CC1)NCc1ccccc1F > 76.9 µM
COC(=O)C1Cc2c([nH]c3ccccc23)C(C)N1 (centres undefined) > 76.9 µM
